Test results: article PMC4336329 (PLoS ONE, 2015)
Among all 310,000 compounds or so, about 14,000 (4.5%) showed an effect of 50% or more. Effects have a minus sign here. The list shows a part of the results.

Target: human ether-à-go-go-related gene (hERG) potassium channel (human, UniProt Q12809)
Assay: primary screen, population patch clamp on CHO cells stably expressing hERG
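Note: peak tail current of the secondary pulse compared with the same well before compound.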

Sequence of human ether-à-go-go-related gene (hERG) potassium channel (Q12809 whole entry, looked up): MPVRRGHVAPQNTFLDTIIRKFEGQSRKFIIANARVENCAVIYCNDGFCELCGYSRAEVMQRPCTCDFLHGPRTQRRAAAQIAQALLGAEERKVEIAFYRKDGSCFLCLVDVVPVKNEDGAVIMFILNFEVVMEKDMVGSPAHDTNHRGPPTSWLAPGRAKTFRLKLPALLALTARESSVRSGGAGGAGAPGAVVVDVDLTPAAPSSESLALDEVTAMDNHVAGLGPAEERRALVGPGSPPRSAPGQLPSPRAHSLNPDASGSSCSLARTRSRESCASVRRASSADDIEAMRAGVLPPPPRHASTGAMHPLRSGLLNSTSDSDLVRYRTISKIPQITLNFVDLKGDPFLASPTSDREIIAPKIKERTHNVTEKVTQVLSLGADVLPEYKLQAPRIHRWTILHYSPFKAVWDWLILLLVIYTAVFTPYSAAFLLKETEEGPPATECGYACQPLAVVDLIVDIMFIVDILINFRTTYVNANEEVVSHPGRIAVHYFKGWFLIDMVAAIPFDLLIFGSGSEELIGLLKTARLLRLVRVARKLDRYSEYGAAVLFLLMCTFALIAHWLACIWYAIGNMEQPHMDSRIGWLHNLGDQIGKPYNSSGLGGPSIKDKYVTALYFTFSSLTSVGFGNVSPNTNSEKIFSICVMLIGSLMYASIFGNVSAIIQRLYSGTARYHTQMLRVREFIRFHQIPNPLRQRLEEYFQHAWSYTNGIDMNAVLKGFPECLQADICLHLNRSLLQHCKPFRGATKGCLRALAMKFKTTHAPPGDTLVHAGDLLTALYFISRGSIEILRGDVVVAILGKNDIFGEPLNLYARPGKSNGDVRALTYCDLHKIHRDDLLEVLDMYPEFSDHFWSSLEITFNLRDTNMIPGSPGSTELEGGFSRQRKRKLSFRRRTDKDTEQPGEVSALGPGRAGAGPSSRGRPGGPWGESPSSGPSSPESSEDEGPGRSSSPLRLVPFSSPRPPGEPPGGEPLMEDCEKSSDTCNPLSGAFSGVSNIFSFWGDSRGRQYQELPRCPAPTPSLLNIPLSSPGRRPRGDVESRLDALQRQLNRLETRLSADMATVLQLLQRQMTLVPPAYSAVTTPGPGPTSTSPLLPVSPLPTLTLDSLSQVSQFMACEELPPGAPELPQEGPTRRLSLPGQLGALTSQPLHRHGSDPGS

SMILES | hERG current change (%, negative = inhibition) at 10uM [%]
COc1cc(OC)c(C2=NOC(C(=O)Nc3c(C)nn(CC(=O)N4CCCC4)c3C)C2)cc1Cl (stereo not shown) | -16.3
CCCc1cc(=O)[nH]c(SCC(=O)Nc2sc3c(c2C#N)CCCC3)n1 | -25.7
CCC1CCCCN1C(=O)COC(=O)c1n[nH]c2ccccc12 (stereo not shown) | -14.1
Cc1ccc(NC(=O)c2sc3nc(C)cc(C)c3c2N)cc1 | 5.38
O=C(Nc1ccc(Br)cn1)c1cccc2c1-c1ccccc1C2=O | 21.6
Cc1ccc(-n2ncc3c(N4CCN(c5ccc(F)cc5)CC4)ncnc32)c(C)c1 | 0.188
O=C(NCCCN1CCCC1=O)Nc1ccc(Cl)cc1 | 2.13
OC1CCN(c2cc(-c3ccccc3)nc3cc(-c4ccc(F)cc4)nn23)CC1 | 4.64
COc1ccc(NC(=O)CSCC(=O)NCc2cccc(C(F)(F)F)c2)cc1 | 3.42
Cc1ccc(-n2c(C)cc(C=C3C(=O)CC(C)(C)CC3=O)c2C)cc1 | 0.298
CCOC(=O)c1ccc(NC(=O)CN2C(=O)CCC2=O)cc1 | 8.48
Cc1cc(NC(=O)c2ccc(F)cc2)n(C)n1 | 17.3
O=C(Nc1ccccc1)c1ccccc1OCc1ccc(F)cc1 | 10.1
Cc1sc2nc(SCC(=O)N(C)Cc3ccccc3)n(-c3ccccc3)c(=O)c2c1C | 7.29
COc1ccc(Cl)cc1NC(=O)CCn1c(=O)oc2ccccc21 | 5.39
Cc1ccc(NC(=S)NNC(=S)NCc2ccccc2)cc1 | 15.4
CCN1C(=O)[C@H]2[C@@H](c3ccc(-c4cc(C(C)=O)cs4)cc3)N3CCC[C@@]3(C(=O)OC)[C@H]2C1=O.O=C(O)C(F)(F)F | 8.98
Cc1cccc(-n2c(O)c(/C=N/NC(=O)c3ccccc3Cl)c3ccccc3c2=O)n1 | 3.15
CCOc1cc(N2CCOCC2)c(OCC)cc1NC(=O)COC(=O)c1cc2ccccc2cc1O | -11.7
CC1(C)O[C@@H]2[C@H](O1)[C@@H](CO)O[C@H]2n1c(N2CCCCC2)nc2c(N)ncnc21 | -2.99
CCOC(=O)c1c(NC(=O)COC(=O)Cc2n[nH]c(=O)c3ccccc23)sc(C(=O)N(C)C)c1C | -2.24
Cc1cc(=O)oc2cc(NC(=O)CC3(CC(=O)O)CCCC3)ccc12 | 14.7

SMILES | hERG current change (%, negative = inhibition) at 10uM [%]
COC(=O)c1ccc(NC(=O)C[n+]2ccccc2)cc1.[Cl-] | 11.9
Cl.Nc1nonc1C(=O)NCCNCc1cc(Br)ccc1OCc1ccc(F)cc1 | -38.2
O=C(CN1C(=O)C2C3CC(C(Br)C3Br)C2C1=O)N1CCOCC1 (stereo not shown) | 6.54
CCOC(=O)C(=O)N/N=C/c1ccc(F)cc1 | 0.391
Cc1cc(=O)oc2cc(OCC(=O)OCC(=O)Nc3ccccc3F)ccc12 | 8.41
CCC1CCCCN1CCCNC(=O)CSc1nc2nc(C)c(Cc3ccc(C)cc3)c(C)n2n1 (stereo not shown) | -47.8
CCCCCCCCC[n+]1cccc2c3ccccc3ccc21.[Br-] | -84.8
O=C1CSC(=NC2CCCCC2)N1 | 14.1
O=C(O)CC(CC(=O)Nc1ccccc1C(=O)O)c1ccccc1 (stereo not shown) | 3.3
CSCC[C@H](NC(=O)OC(C)(C)C)C(=O)N1CCC(C(=O)N[C@H](C(=O)O)C(C)C)CC1 | -3.7
Cc1ccc(CNC(=O)C2CC(c3ccc(C(F)(F)F)cc3)=NO2)o1 (stereo not shown) | 3.13
CCN(CC(=O)Nc1cc(Cl)ccc1C)C(=O)CCOc1ccccc1C | 18.4
O=C(CSCc1ccccc1)N1CCN(C(=O)c2ccco2)CC1 | -14.3
Cn1nnnc1SCC(=O)NC1CCCc2ccccc21 (stereo not shown) | 22.9
COCC(=O)NC(c1ccccc1)c1ccccc1 | -4.82
CC(=O)Nc1ccc(S(=O)(=O)NC2=NCN(C)CN2)cc1 | 2.76
Cc1nn(Cc2ccccc2)c(C)c1/C=N/NC(=O)c1cccnc1 | -1.16
COC(=O)c1sc2ccccc2c1NC(=O)c1cccs1 | -6.7
CC1CN(S(=O)(=O)c2ccc(C(=O)NCCCn3ccnc3)cc2)CC(C)O1 (stereo not shown) | 13.7
CCc1nnc(NC(=O)c2cccc(S(=O)(=O)N3CCN(C(C)=O)CC3)c2)s1 | -7.3
O=C(NC(Cc1ccccc1)C(=O)O)c1ccc(S(=O)(=O)N2CCOCC2)cc1 (stereo not shown) | -3.75
